This is one part of the list.
B1: PhoQ; a variant is named by its letters at X, in order, P23837 (parent)
chain: MKKLLRLFFPLSLRVRFLLATAAVVLVLSLAYGMVALIGYSVSFDKTTFRLLRGESNLFYTLAKWENNKLHVELPENIDKQSPTMTLIYDENGQLLWAQRDVPWLMKMIQPDWLKSNGFHEIEADVNDTSLLLSGDHSIQQQLQEVREDDDDAEMTHSVAVNVYPATSRMPKLTIVVVDTIPVELKSSYMVWSWFIYVLSANLLLVIPLLWVAAWWSLRPIEALAKEVRELEEHNRELLNPATTRELTSLVRNLNRLLKSERERYDKYRTTLTDLTHSLKTPLXXLQXXLRSLRSEKMSVSDAEPVMLEQISRISQQIGYYLHRASMRGGTLLSRELHPVAPLLDNLTSALNKVYQRKGVNISLDISPEISFVGEQNDFVEVMGNVLDNACKYCLEFVEISARQTDEHLYIVVEDDGPGIPLSKREVIFDRGQRVDTLRPGQGVGLAVAREITEQYEGKIVAGESMLGGARMEVIFGRQHSAPKDE

Variants of: B1
Assay: enrichment ratio after two sorts for PhoP signalling (ratio (wild type AVST 3.29)); higher = more functional
Details: with PhoP (E. coli)

| Variant | enrichment ratio |
| --- | --- |
| LRYP | ≤ 0.25 |
| KLTH | ≤ 0.25 |
| QLAP | ≤ 0.25 |
| WHIS | ≤ 0.25 |
| DIQK | ≤ 0.25 |
| YAPQ | ≤ 0.25 |
| ILPM | ≤ 0.25 |
| VSQW | ≤ 0.25 |
| RDKN | ≤ 0.25 |
| IIME | ≤ 0.25 |
| FSPP | ≤ 0.25 |
| NVLM | ≤ 0.25 |
| TCHY | 5.9 |
| MTQA | ≤ 0.25 |
| WPPW | ≤ 0.25 |
| IMMT | ≤ 0.25 |
| PQIA | ≤ 0.25 |
| EYTN | ≤ 0.25 |
| YDDP | ≤ 0.25 |
| SVEY | ≤ 0.25 |
| IAWN | 6.67 |
| PATV | ≤ 0.25 |
| STKN | ≤ 0.25 |
| AGTF | 3.25 |

| Variant | enrichment ratio |
| --- | --- |
| DRAA | ≤ 0.25 |
| ELIG | ≤ 0.25 |
| VESN | ≤ 0.25 |
| HNCQ | ≤ 0.25 |
| WREY | ≤ 0.25 |
| FLSV | ≤ 0.25 |
| LGTI | ≤ 0.25 |
| KIAD | ≤ 0.25 |
| SHGT | ≤ 0.25 |
| DGNA | ≤ 0.25 |
| IAQA | ≤ 0.25 |
| YLNR | ≤ 0.25 |
| SGPE | ≤ 0.25 |
| IDFE | ≤ 0.25 |
| EVFF | ≤ 0.25 |
| QHLY | ≤ 0.25 |
| YIDD | ≤ 0.25 |
| SHMT | ≤ 0.25 |
| HYLV | ≤ 0.25 |
| KSEQ | ≤ 0.25 |
| QSGK | ≤ 0.25 |
| VYTH | ≤ 0.25 |
| NYYD | ≤ 0.25 |
| PQLV | ≤ 0.25 |

| Variant | enrichment ratio |
| --- | --- |
| RHAQ | ≤ 0.25 |
| KRDV | ≤ 0.25 |
| RFII | ≤ 0.25 |
| PLMM | ≤ 0.25 |
| AQSL | 7.47 |
| GILD | 3.23 |
| HHRK | ≤ 0.25 |
| SNEQ | ≤ 0.25 |
| DQCC | ≤ 0.25 |
| TMAA | 8.44 |
| KSSG | ≤ 0.25 |
| YFPW | ≤ 0.25 |
| IGYN | 0.356 |
| EIPK | ≤ 0.25 |
| HYVK | ≤ 0.25 |
| YCGF | ≤ 0.25 |
| AQRW | ≤ 0.25 |
| NVRM | ≤ 0.25 |
| MQCR | ≤ 0.25 |
| KFNC | ≤ 0.25 |
| GSHS | ≤ 0.25 |
| SCLD | 0.618 |
| IFGI | ≤ 0.25 |
| HKVT | ≤ 0.25 |

| Variant | enrichment ratio |
| --- | --- |
| AAAN | ≤ 0.25 |
| NPEP | ≤ 0.25 |
| LVVA | ≤ 0.25 |
| IFEH | ≤ 0.25 |
| VEAG | 4.31 |
| PHIQ | ≤ 0.25 |
| PFPT | ≤ 0.25 |
| QKFC | ≤ 0.25 |
| SEFP | ≤ 0.25 |
| RELI | ≤ 0.25 |
| PSRF | ≤ 0.25 |
| EICV | ≤ 0.25 |
| QYMP | ≤ 0.25 |
| GEEA | ≤ 0.25 |
| PMIG | ≤ 0.25 |
| FPCI | ≤ 0.25 |
| PAEF | ≤ 0.25 |
| YTNA | ≤ 0.25 |
| RVEQ | ≤ 0.25 |
| MRAR | ≤ 0.25 |
| KNCE | ≤ 0.25 |
| KGCI | ≤ 0.25 |
| DQEL | ≤ 0.25 |
| MMPN | ≤ 0.25 |

| Variant | enrichment ratio |
| --- | --- |
| VMHD | ≤ 0.25 |
| RYGT | ≤ 0.25 |
| MSPV | ≤ 0.25 |
| ARCS | 0.527 |
| AVVC | ≤ 0.25 |
| QVAI | ≤ 0.25 |
| NIFK | ≤ 0.25 |
| ISDP | ≤ 0.25 |
| IMMK | ≤ 0.25 |
| LGLA | ≤ 0.25 |
| TMDT | ≤ 0.25 |
| KGIA | ≤ 0.25 |
| VGCM | 0.916 |
| RVYG | ≤ 0.25 |
| AFAA | ≤ 0.25 |
| DAIT | ≤ 0.25 |
| KAIW | ≤ 0.25 |
| QFKM | ≤ 0.25 |
| VFDL | ≤ 0.25 |
| METC | 45.8 |
| KRHT | ≤ 0.25 |
| SEHW | ≤ 0.25 |
| NHWS | ≤ 0.25 |
| TAPD | ≤ 0.25 |

| Variant | enrichment ratio |
| --- | --- |
| YIYN | ≤ 0.25 |
| IRKE | ≤ 0.25 |
| LNGR | ≤ 0.25 |
| MFEF | 0.864 |
| KVHV | ≤ 0.25 |
| WRLG | ≤ 0.25 |
| YLWW | ≤ 0.25 |
| LQGT | ≤ 0.25 |
| RVFQ | ≤ 0.25 |
| HNMY | ≤ 0.25 |
| IEQV | ≤ 0.25 |
| YMIR | ≤ 0.25 |
| AYSA | ≤ 0.25 |
| MHLI | ≤ 0.25 |
| FGWM | ≤ 0.25 |
| FLHV | ≤ 0.25 |
| FLNY | ≤ 0.25 |
| WQMR | ≤ 0.25 |
| TSKR | ≤ 0.25 |
| ERPQ | ≤ 0.25 |
| FFWR | ≤ 0.25 |
| VANE | ≤ 0.25 |
| TVYN | 6.13 |
| PSWH | ≤ 0.25 |

| Variant | enrichment ratio |
| --- | --- |
| SRLP | ≤ 0.25 |
| RCDI | ≤ 0.25 |
| PRSA | ≤ 0.25 |
| VDWG | ≤ 0.25 |
| WYRT | ≤ 0.25 |
| IDFQ | ≤ 0.25 |
| LQSG | ≤ 0.25 |
| WDIK | ≤ 0.25 |
| KFIN | ≤ 0.25 |
| MLLV | ≤ 0.25 |
| SDSI | 1.29 |
| PYAI | ≤ 0.25 |
| SKWP | ≤ 0.25 |
| DMGF | ≤ 0.25 |
| EYEH | ≤ 0.25 |
| VQRL | ≤ 0.25 |
| YQQY | ≤ 0.25 |
| SHWM | ≤ 0.25 |
| VFGD | ≤ 0.25 |
| GCWD | ≤ 0.25 |
| ALQR | ≤ 0.25 |
| LAHF | ≤ 0.25 |
| TTRL | 1.01 |
| DHMF | ≤ 0.25 |

| Variant | enrichment ratio |
| --- | --- |
| IWSC | ≤ 0.25 |
| PIWY | ≤ 0.25 |
| EQGS | ≤ 0.25 |
| TPCD | ≤ 0.25 |
| PHRK | ≤ 0.25 |
| IEGF | ≤ 0.25 |
| SELE | 21.5 |
| NGYW | ≤ 0.25 |
| MINY | ≤ 0.25 |
| YKCQ | ≤ 0.25 |
| ANWR | ≤ 0.25 |
| RDHK | ≤ 0.25 |
| RQVW | ≤ 0.25 |
| DNMI | ≤ 0.25 |
| VEER | ≤ 0.25 |
| FNNE | ≤ 0.25 |
| LHQP | ≤ 0.25 |
| NKHK | ≤ 0.25 |
| IDNV | ≤ 0.25 |
| MQFM | 12.3 |
| RAQA | ≤ 0.25 |
| SNYW | ≤ 0.25 |
| MEQC | ≤ 0.25 |
| IHFC | ≤ 0.25 |

| Variant | enrichment ratio |
| --- | --- |
| MLTW | ≤ 0.25 |
| IWYT | ≤ 0.25 |
| FALC | 6.6 |
| HQGF | ≤ 0.25 |
| HAHP | ≤ 0.25 |
| VHYD | ≤ 0.25 |
| PRWW | ≤ 0.25 |
| YTMT | 0.265 |
| MGIW | ≤ 0.25 |
| HCGQ | ≤ 0.25 |
| KTPD | ≤ 0.25 |
| NDCT | ≤ 0.25 |
| YHPC | ≤ 0.25 |
| NGVL | ≤ 0.25 |
| GLPV | ≤ 0.25 |
| TMNV | 3.3 |
| DYMV | ≤ 0.25 |
| RHQR | ≤ 0.25 |
| EFYM | ≤ 0.25 |
| IARW | ≤ 0.25 |
| IPRT | ≤ 0.25 |
| VQCL | ≤ 0.25 |
| TNDC | ≤ 0.25 |
| LMWM | ≤ 0.25 |

| Variant | enrichment ratio |
| --- | --- |
| QICR | ≤ 0.25 |
| IYQK | ≤ 0.25 |
| WPFC | ≤ 0.25 |
| QDPH | ≤ 0.25 |
| GSED | ≤ 0.25 |
| RQKN | ≤ 0.25 |
| IEWN | 4.75 |
| HKQM | ≤ 0.25 |
| SRGW | 2.5 |
| DRFR | ≤ 0.25 |
| DTKL | ≤ 0.25 |
| NRSY | ≤ 0.25 |
| KGKI | ≤ 0.25 |
| HMQL | ≤ 0.25 |
| PKRA | ≤ 0.25 |
| IKAG | ≤ 0.25 |
| MGQL | ≤ 0.25 |
| DVQT | ≤ 0.25 |
| KQGY | ≤ 0.25 |
| IRMC | ≤ 0.25 |
| SGSS | 9.97 |
| VHSF | ≤ 0.25 |
| VRLK | 1.06 |
| TWLL | ≤ 0.25 |

| Variant | enrichment ratio |
| --- | --- |
| GPFW | ≤ 0.25 |
| PDQY | ≤ 0.25 |
| IKCR | ≤ 0.25 |
| PDLC | 0.919 |
| DHAQ | ≤ 0.25 |
| TPPL | ≤ 0.25 |
| KRTW | ≤ 0.25 |
| ANFP | ≤ 0.25 |
| NYFQ | ≤ 0.25 |
| KQMC | ≤ 0.25 |
| WPPI | ≤ 0.25 |
| FAEI | ≤ 0.25 |
| GRPH | ≤ 0.25 |
| MDSP | 1.12 |
| TLPS | ≤ 0.25 |
| HNRP | ≤ 0.25 |
| SVYT | ≤ 0.25 |
| VPMP | ≤ 0.25 |
| MAQA | ≤ 0.25 |
| WVDW | ≤ 0.25 |
| QTAY | ≤ 0.25 |
| KSNE | ≤ 0.25 |
| RSDV | ≤ 0.25 |
| NLEP | ≤ 0.25 |

| Variant | enrichment ratio |
| --- | --- |
| RAHV | ≤ 0.25 |
| READ | ≤ 0.25 |
| LKVE | ≤ 0.25 |
| PTPN | ≤ 0.25 |
| GNFM | ≤ 0.25 |
| ITNP | ≤ 0.25 |
| EELY | ≤ 0.25 |
| HVYH | ≤ 0.25 |
| VDAK | ≤ 0.25 |
| WEQV | ≤ 0.25 |
| HWHL | ≤ 0.25 |
| MWPP | ≤ 0.25 |
| DNDH | ≤ 0.25 |
| APAL | ≤ 0.25 |
| DRRF | ≤ 0.25 |
| KEKY | ≤ 0.25 |
| RLDR | ≤ 0.25 |
| ADCT | ≤ 0.25 |
| KSDE | ≤ 0.25 |
| QWHF | ≤ 0.25 |
| VFKM | ≤ 0.25 |
| SMQS | 0.676 |
| IVHY | ≤ 0.25 |
| FMCH | ≤ 0.25 |

| Variant | enrichment ratio |
| --- | --- |
| MPVQ | ≤ 0.25 |
| VQFL | ≤ 0.25 |
| LCLN | 0.259 |
| YHRK | ≤ 0.25 |
| KYPR | ≤ 0.25 |
| KDGY | ≤ 0.25 |
| PWML | ≤ 0.25 |
| KQYG | ≤ 0.25 |
| YMQL | ≤ 0.25 |
| NAKA | ≤ 0.25 |
| SEAN | 5.01 |
| TNTF | ≤ 0.25 |
| NDWY | ≤ 0.25 |
| IHYE | ≤ 0.25 |
| NYCG | ≤ 0.25 |
| IAPW | ≤ 0.25 |
| WSCE | ≤ 0.25 |
| EMQT | ≤ 0.25 |

Source: a collection of fitness landscapes (doi:10.1126/science.1257360)
